Lines with a small IC50 respond at low doses; a limit (>, <) means that the fit lies beyond the doses tested. For AUC the same curve is integrated over the 256-fold range of doses and scaled to a fraction: 1 means no effect, lower means more sensitive. An inferred top dose is not printed in the source and was worked back from the curve model.
How the values were obtained:
Test in all cases: Viability of human cancer cell lines after 72 h of drug (GDSC screen)
[1] = compound: COc1cc(C)c(Sc2cnc(NC(=O)c3ccc(CNC(C)C(C)(C)C)cc3)s2)cc1C(=O)N1CCN(C(C)=O)CC1 [BMS-509744]; details: top dose 10.24 µM; top dose inferred
Procedure: (§1)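 Human cancer cell lines in 384-well plates, medium with 10% serum, drug for 72 h over a 256-fold dose range (nine 2-fold or five 4-fold steps up to the top dose). Adherent lines were fixed and stained with the nucleic acid dye Syto60, suspension lines read with resazurin; signal relative to control wells, capped at 0 and 100%. One two-parameter sigmoid per drug and line, fitted in a mixed model over all curves with the slope shared within a line.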

[2] = compound: Cn1cncc1[C@@](N)(c1ccc(Cl)cc1)c1ccc2c(c1)c(-c1cccc(Cl)c1)cc(=O)n2C [Tipifarnib]; details: top dose 16 µM; top dose inferred
Procedure: as §1

[3] = compound: CCN1CCN(Cc2ccc(NC(=O)c3ccc(C)c(Oc4ccnc5[nH]ccc45)c3)cc2C(F)(F)F)CC1 [NG-25]; details: top dose 10.24 µM; top dose inferred
Procedure: as §1

[4] = compound: COc1ccccc1S(=O)(=O)Nc1ccc2c(c1)CN(C)C(=O)N2 [PFI-1]; details: top dose 10 µM; top dose inferred
Procedure: as §1

[5] = compound: CCc1cc(Nc2nccc(-c3c(-c4ccc(OC)c(C(=O)Nc5c(F)cccc5F)c4)nc4ccccn34)n2)c(OC)cc1N1CCC(N2CCN(S(C)(=O)=O)CC2)CC1 [GSK-1904529A]; details: top dose 1.024 µM; top dose inferred
Procedure: as §1

Row | Cell Line | AUC [1] | IC50 [1] [µM] | AUC [2] | IC50 [2] [µM] | AUC [3] | IC50 [3] [µM] | AUC [4] | IC50 [4] [µM] | AUC [5] | IC50 [5] [µM]
1 | LC4-1 (lymphoblastic leukaemia, suspension) | 0.876 | > 10.2 | 0.584 | 1.74 | 0.743 | 3.47 | 0.754 | 3.68 | 0.951 | > 1.02
2 | SNU-C2B (large intestine, adherent) | 0.767 | 5.04 | 0.701 | 4.45 | 0.921 | > 10.2 | 0.924 | > 10 | 0.966 | > 1.02
3 | MPP-89 (mesothelioma, adherent) | 0.878 | > 10.2 | 0.835 | 15.4 | 0.803 | 7.02 | 0.912 | > 10 | 0.978 | > 1.02
4 | A704 (kidney, adherent) | 0.955 | > 10.2 | 0.821 | 8.89 | 0.727 | 2.75 | 0.931 | > 10 | 0.977 | > 1.02
5 | SCC-15 (head and neck, adherent) | 0.92 | > 10.2 | 0.721 | 5.33 | 0.896 | > 10.2 | 0.798 | 6.79 | 0.975 | > 1.02
6 | CW-2 (large intestine, adherent) | 0.989 | > 10.2 | 0.989 | > 16 | 0.938 | > 10.2 | 0.973 | > 10 | 0.989 | > 1.02
7 | LS-123 (large intestine, adherent) | 0.925 | > 10.2 | 0.573 | 1.69 | 0.958 | > 10.2 | 0.935 | > 10 | 0.922 | > 1.02
8 | SK-ES-1 (Ewing sarcoma, semi-adherent) | 0.785 | 4.68 | 0.391 | 0.491 | 0.864 | 9.93 | 0.977 | > 10 | 0.983 | > 1.02
9 | L-428 (Hodgkin lymphoma, suspension) | 0.973 | > 10.2 | 0.788 | 6.1 | 0.983 | > 10.2 | 0.943 | > 10 | 0.993 | > 1.02
10 | TE-8 (oesophagus, adherent) | 0.772 | 4.23 | 0.479 | 0.871 | 0.846 | 8.27 | 0.894 | > 10 | 0.969 | > 1.02
11 | QIMR-WIL (acute myeloid leukaemia, suspension) | 0.902 | > 10.2 | 0.092 | < 0.0625 | 0.675 | 1.94 | 0.85 | 7.27 | 0.986 | > 1.02
12 | NCI-H1436 (small cell lung carcinoma, suspension) | 0.852 | 9.72 | 0.918 | > 16 | 0.858 | > 10.2 | 0.942 | > 10 | 0.982 | > 1.02
13 | RKO (large intestine, adherent) | 0.779 | 3.87 | 0.508 | 1.05 | 0.864 | 7.91 | 0.722 | 2.52 | 0.988 | > 1.02
14 | KALS-1 (glioma, adherent) | 0.848 | > 10.2 | 0.854 | > 16 | 0.893 | > 10.2 | 0.861 | > 10 | 0.976 | > 1.02
15 | IST-MES1 (mesothelioma, adherent) | 0.85 | 7.82 | 0.779 | 6.59 | 0.831 | 6.58 | 0.756 | 3.44 | 0.982 | > 1.02
16 | CHP-126 (neuroblastoma, suspension) | 0.835 | 6.98 | 0.914 | > 16 | 0.88 | > 10.2 | 0.971 | > 10 | 0.985 | > 1.02
17 | D-263MG (glioma, adherent) | 0.899 | > 10.2 | 0.96 | > 16 | 0.981 | > 10.2 | 0.843 | 9.36 | 0.982 | > 1.02
18 | SK-MEL-1 (melanoma, suspension) | 0.972 | > 10.2 | 0.993 | > 16 | 0.931 | > 10.2 | 0.958 | > 10 | 0.993 | > 1.02
19 | TGBC1TKB (biliary tract, adherent) | 0.908 | > 10.2 | 0.881 | > 16 | 0.859 | 8.37 | 0.962 | > 10 | 0.988 | > 1.02
20 | SK-UT-1 (soft tissue, adherent) | 0.977 | > 10.2 | 0.691 | 3.24 | 0.924 | > 10.2 | 0.877 | 8.47 | 0.985 | > 1.02

Row | Cell Line | AUC [1] | IC50 [1] [µM] | AUC [2] | IC50 [2] [µM] | AUC [3] | IC50 [3] [µM] | AUC [4] | IC50 [4] [µM] | AUC [5] | IC50 [5] [µM]
21 | CCRF-CEM (lymphoblastic leukaemia, suspension) | 0.94 | > 10.2 | 0.627 | 2.1 | 0.852 | 6.03 | 0.906 | 9.77 | 0.977 | > 1.02
22 | LB996-RCC (kidney, adherent) | 0.9 | > 10.2 | 0.722 | 4.78 | 0.966 | > 10.2 | 0.814 | 6.62 | 0.931 | > 1.02
23 | NCI-H209 (small cell lung carcinoma, suspension) | 0.978 | > 10.2 | 0.817 | 9.75 | 0.885 | > 10.2 | 0.918 | > 10 | 0.975 | > 1.02
24 | BE-13 (lymphoblastic leukaemia, suspension) | 0.825 | 5.62 | 0.68 | 3.07 | 0.36 | 0.27 | 0.902 | > 10 | 0.982 | > 1.02
25 | A498 (kidney, adherent) | 0.975 | > 10.2 | 0.977 | > 16 | 0.972 | > 10.2 | 0.976 | > 10 | 0.964 | > 1.02
26 | L-363 (myeloma, suspension) | 0.814 | 4.65 | 0.849 | 9.65 | 0.877 | 7.9 | 0.683 | 1.87 | 0.983 | > 1.02
27 | SJSA-1 (bone, adherent) | 0.803 | 5.87 | 0.695 | 3.82 | 0.922 | > 10.2 | 0.831 | 7.52 | 0.982 | > 1.02
28 | NH-12 (neuroblastoma, adherent) | 0.956 | > 10.2 | 0.736 | 5.19 | 0.842 | 8.53 | 0.951 | > 10 | 0.985 | > 1.02
29 | NB10 (neuroblastoma, adherent) | 0.987 | > 10.2 | 0.674 | 3.01 | 0.838 | 6.65 | 0.876 | 9.52 | 0.985 | > 1.02
30 | MMAC-SF (melanoma, adherent) | 0.899 | > 10.2 | 0.794 | 7.74 | 0.987 | > 10.2 | 0.832 | 6.75 | 0.983 | > 1.02
31 | NCI-H23 (lung adenocarcinoma, adherent) | 0.957 | > 10.2 | 0.981 | > 16 | 0.937 | > 10.2 | 0.874 | 9.57 | 0.988 | > 1.02
32 | SIMA (neuroblastoma, adherent) | 0.913 | > 10.2 | 0.818 | 10.5 | 0.734 | 3.3 | 0.898 | > 10 | 0.984 | > 1.02
33 | MZ7-mel (melanoma, adherent) | 0.868 | 9.87 | 0.463 | 0.789 | 0.781 | 4.42 | 0.875 | > 10 | 0.977 | > 1.02
34 | Mo-T (hairy cell leukaemia, suspension) | 0.986 | > 10.2 | 0.938 | > 16 | 0.924 | > 10.2 | 0.873 | 9.98 | 0.987 | > 1.02
35 | KMOE-2 (acute myeloid leukaemia, suspension) | 0.953 | > 10.2 | 0.733 | 4.21 | 0.885 | 9.11 | 0.774 | 3.5 | 0.98 | > 1.02
36 | CAS-1 (glioma, adherent) | 0.96 | > 10.2 | 0.798 | 11.1 | 0.864 | > 10.2 | 0.87 | > 10 | 0.978 | > 1.02
37 | ES1 (Ewing sarcoma, adherent) | 0.86 | 8.36 | 0.602 | 1.89 | 0.847 | 7.36 | 0.922 | > 10 | 0.986 | > 1.02
38 | COR-L95 (small cell lung carcinoma, adherent) | 0.894 | > 10.2 | 0.953 | > 16 | 0.959 | > 10.2 | 0.965 | > 10 | 0.986 | > 1.02
39 | NCI-H345 (small cell lung carcinoma, suspension) | 0.926 | > 10.2 | 0.979 | > 16 | 0.988 | > 10.2 | 0.974 | > 10 | 0.99 | > 1.02
40 | SH-4 (melanoma, adherent) | 0.688 | 2.91 | 0.539 | 1.35 | 0.785 | 7.29 | 0.849 | > 10 | 0.954 | > 1.02

— the supplement of paper PMC4967469
